# Reference: the supplement of paper PMC8728848
# This is one part of the list.
# B1: Gal 1 (Mus musculus), P16045 (protein)
# chain: MACGLVASNLNLKPGECLKVRGEVASDAKSFVLNLGKDSNNLCLHFNPRFNAHGDANTIVCNTKEDGTWGTEHREPAFPFQPGSITEVCITFDQADLTIKLPDGHEFKFPNRLNMEAINYMAADGDFKIKCVAFE
# Experiments:
# Test in all cases: glycan array binding signal (z-score within array); higher = stronger binding
# Settings in all cases: glycan notation: IUPAC condensed, linker removed
# [1] = target: Fuc(a1-2)[GalNAc(a1-3)]Gal(b1-3)GalNAc(b1-3)Gal(a1-4)Gal(b1-4)Glc
# In short: (§1)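 Columns mapping to the same glycan were averaged after glycan names were converted to IUPAC-condensed notation. The data come from 3228 arrays in the Consortium for Functional Glycomics database, limited to those with an available protein sequence. Binding is reported as a within-array Z-score averaged across arrays of one protein sequence and across linkers.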
# [2] = target: Fuc(a1-2)[GalNAc(a1-3)]Gal(b1-3)GlcNAc
# In short: as §1
# [3] = target: Fuc(a1-2)[GalNAc(a1-3)]Gal(b1-3)GlcNAc(b1-2)Man(a1-3)[Fuc(a1-2)[GalNAc(a1-3)]Gal(b1-3)GlcNAc(b1-2)Man(a1-6)]Man(b1-4)GlcNAc(b1-4)GlcNAc
# In short: as §1
# [4] = target: Fuc(a1-2)[GalNAc(a1-3)]Gal(b1-3)GlcNAc(b1-2)Man(a1-3)[Fuc(a1-2)[GalNAc(a1-3)]Gal(b1-3)GlcNAc(b1-2)Man(a1-6)]Man(b1-4)GlcNAc(b1-4)[Fuc(a1-6)]GlcNAc
# In short: as §1
# [5] = target: Fuc(a1-2)[GalNAc(a1-3)]Gal(b1-3)GlcNAc(b1-3)GalNAc
# In short: as §1
# [6] = target: Fuc(a1-2)[GalNAc(a1-3)]Gal(b1-3)GlcNAc(b1-6)GalNAc
# In short: as §1
# [7] = target: Fuc(a1-2)[GalNAc(a1-3)]Gal(b1-4)Glc
# In short: as §1
# [8] = target: Fuc(a1-2)[GalNAc(a1-3)]Gal(b1-4)GlcNAc
# In short: as §1
# [9] = target: Fuc(a1-2)[GalNAc(a1-3)]Gal(b1-4)GlcNAc(b1-2)Man
# In short: as §1
# [10] = target: Fuc(a1-2)[GalNAc(a1-3)]Gal(b1-4)GlcNAc(b1-2)Man(a1-3)[Fuc(a1-2)[GalNAc(a1-3)]Gal(b1-4)GlcNAc(b1-2)Man(a1-6)]Man(b1-4)GlcNAc(b1-4)GlcNAc
# In short: as §1
# [11] = target: Fuc(a1-2)[GalNAc(a1-3)]Gal(b1-4)GlcNAc(b1-2)Man(a1-3)[Fuc(a1-2)[GalNAc(a1-3)]Gal(b1-4)GlcNAc(b1-2)Man(a1-6)]Man(b1-4)GlcNAc(b1-4)[Fuc(a1-6)]GlcNAc
# In short: as §1
# [12] = target: Fuc(a1-2)[GalNAc(a1-3)]Gal(b1-4)GlcNAc(b1-3)Gal(b1-4)GlcNAc
# In short: as §1
# [13] = target: Fuc(a1-2)[GalNAc(a1-3)]Gal(b1-4)GlcNAc(b1-3)Gal(b1-4)GlcNAc(b1-3)Gal(b1-4)GlcNAc
# In short: as §1
# [14] = target: Fuc(a1-2)[GalNAc(a1-3)]Gal(b1-4)GlcNAc(b1-3)GalNAc
# In short: as §1
# [15] = target: Fuc(a1-2)[GalNAc(a1-3)]Gal(b1-4)GlcNAc(b1-3)[Fuc(a1-2)[GalNAc(a1-3)]Gal(b1-4)GlcNAc(b1-6)]GalNAc
# In short: as §1
# [16] = target: Fuc(a1-2)[GalNAc(a1-3)]Gal(b1-4)GlcNAc(b1-6)GalNAc
# In short: as §1
# [17] = target: Fuc(a1-2)[GalNAc(a1-3)]Gal(b1-4)[Fuc(a1-3)]GlcNAc
# In short: as §1
# [18] = target: Fuc(a1-2)[GalNAc(a1-3)]Gal(b1-4)[Fuc(a1-3)]GlcNAc(b1-3)GalNAc
# In short: as §1
# [19] = target: Fuc(a1-2)[GalNAc(a1-4)]Gal(b1-4)GlcNAc
# In short: as §1
# [20] = target: Fuc(a1-2)[GalNAc(b1-3)]Gal
# In short: as §1
# Fuc(a1-3)GlcNAc = target: Fuc(a1-3)GlcNAc
# In short: as §1
# [21] = target: Fuc(a1-3)[Gal(b1-4)]Glc6S
# In short: as §1
# [22] = target: Fuc(a1-3)[Gal(b1-4)]GlcNAc
# In short: as §1
# [23] = target: Fuc(a1-3)[Gal(b1-4)]GlcNAc(b1-2)Man
# In short: as §1
# [24] = target: Fuc(a1-3)[Gal(b1-4)]GlcNAc(b1-2)Man(a1-3)[Fuc(a1-3)[Gal(b1-4)]GlcNAc(b1-2)Man(a1-6)]Man(b1-4)GlcNAc(b1-4)GlcNAc
# In short: as §1
# [25] = target: Fuc(a1-3)[Gal(b1-4)]GlcNAc(b1-2)Man(a1-3)[Fuc(a1-3)[Gal(b1-4)]GlcNAc(b1-2)Man(a1-6)]Man(b1-4)GlcNAc(b1-4)[Fuc(a1-6)]GlcNAc
# In short: as §1
# [26] = target: Fuc(a1-3)[Gal(b1-4)]GlcNAc(b1-3)Gal(b1-3)[Fuc(a1-4)]GlcNAc
# In short: as §1
# [27] = target: Fuc(a1-3)[Gal(b1-4)]GlcNAc(b1-3)Gal(b1-4)[Fuc(a1-3)]GlcNAc
# In short: as §1
# [28] = target: Fuc(a1-3)[Gal(b1-4)]GlcNAc(b1-3)Gal(b1-4)[Fuc(a1-3)]GlcNAc(b1-3)Gal(b1-4)[Fuc(a1-3)]GlcNAc
# In short: as §1
# [29] = target: Fuc(a1-3)[Gal(b1-4)]GlcNAc(b1-3)GalNAc
# In short: as §1
# [30] = target: Fuc(a1-3)[Gal(b1-4)]GlcNAc(b1-4)Gal(b1-4)[Fuc(a1-3)]GlcNAc
# In short: as §1
# [31] = target: Fuc(a1-3)[Gal(b1-4)]GlcNAc(b1-4)Gal(b1-4)[Fuc(a1-3)]GlcNAc(b1-4)Gal(b1-4)[Fuc(a1-3)]GlcNAc
# In short: as §1
# [32] = target: Fuc(a1-3)[Gal(b1-4)]GlcNAc(b1-6)GalNAc
# In short: as §1
# [33] = target: Fuc(a1-3)[Gal(b1-4)]GlcNAc(b1-6)[Gal(b1-3)GlcNAc(b1-3)]Gal(b1-4)Glc
# In short: as §1
# [34] = target: Fuc(a1-3)[Gal(b1-4)]GlcNAc6S
# In short: as §1
# [35] = target: Fuc(a1-3)[Gal3S(b1-4)]Glc
# In short: as §1
# [36] = target: Fuc(a1-3)[Gal3S(b1-4)]GlcNAc
# In short: as §1
# [37] = target: Fuc(a1-3)[Gal3S(b1-4)]GlcNAc6S
# In short: as §1
# [38] = target: Fuc(a1-3)[GalNAc(b1-4)]GlcNAc
# In short: as §1
# [39] = target: Fuc(a1-3)[GalNAc(b1-4)]GlcNAc6S
# In short: as §1
# Fuc(a1-4)GlcNAc = target: Fuc(a1-4)GlcNAc
# In short: as §1
# Fuc(b1-3)GlcNAc = target: Fuc(b1-3)GlcNAc
# In short: as §1
# Gal(a1-2)Gal = target: Gal(a1-2)Gal
# In short: as §1
# Gal(a1-3)Gal = target: Gal(a1-3)Gal
# In short: as §1
# Gal(a1-3)Gal(b1-3)GlcNAc = target: Gal(a1-3)Gal(b1-3)GlcNAc
# In short: as §1
binder,measurement,setting,value
B1,glycan array binding signal (z-score),[1],-0.473
same,glycan array binding signal (z-score),[2],-0.394
same,glycan array binding signal (z-score),[3],-0.212
same,glycan array binding signal (z-score),[4],-0.145
same,glycan array binding signal (z-score),[5],-0.258
same,glycan array binding signal (z-score),[6],-0.368
same,glycan array binding signal (z-score),[7],-0.279
same,glycan array binding signal (z-score),[8],-0.252
same,glycan array binding signal (z-score),[9],-0.322
same,glycan array binding signal (z-score),[10],-0.059
same,glycan array binding signal (z-score),[11],-0.13
same,glycan array binding signal (z-score),[12],-0.342
same,glycan array binding signal (z-score),[13],-0.032
same,glycan array binding signal (z-score),[14],-0.243
same,glycan array binding signal (z-score),[15],-0.292
same,glycan array binding signal (z-score),[16],-0.371
same,glycan array binding signal (z-score),[17],-0.209
same,glycan array binding signal (z-score),[18],-0.272
same,glycan array binding signal (z-score),[19],-0.372
same,glycan array binding signal (z-score),[20],-0.391
same,glycan array binding signal (z-score),Fuc(a1-3)GlcNAc,-0.329
same,glycan array binding signal (z-score),[21],-0.237
same,glycan array binding signal (z-score),[22],-0.28
same,glycan array binding signal (z-score),[23],-0.075
same,glycan array binding signal (z-score),[24],-0.134
same,glycan array binding signal (z-score),[25],-0.334
same,glycan array binding signal (z-score),[26],-0.064
same,glycan array binding signal (z-score),[27],-0.236
same,glycan array binding signal (z-score),[28],-0.445
same,glycan array binding signal (z-score),[29],-0.264
same,glycan array binding signal (z-score),[30],-0.186
same,glycan array binding signal (z-score),[31],-0.42
same,glycan array binding signal (z-score),[32],-0.072
same,glycan array binding signal (z-score),[33],-0.15
same,glycan array binding signal (z-score),[34],-0.314
same,glycan array binding signal (z-score),[35],1.23
same,glycan array binding signal (z-score),[36],-0.226
same,glycan array binding signal (z-score),[37],-0.27
same,glycan array binding signal (z-score),[38],-0.277
same,glycan array binding signal (z-score),[39],-0.325
same,glycan array binding signal (z-score),Fuc(a1-4)GlcNAc,-0.353
same,glycan array binding signal (z-score),Fuc(b1-3)GlcNAc,-0.397
same,glycan array binding signal (z-score),Gal(a1-2)Gal,-0.218
same,glycan array binding signal (z-score),Gal(a1-3)Gal,-0.382
same,glycan array binding signal (z-score),Gal(a1-3)Gal(b1-3)GlcNAc,0.737
